{"source": "the supplement of paper PMC11876631", "proteins": {"B1": {"name": "psd V86A (protein)", "chain": "MLNSFKLSLQYILPKLWLTRLAGWGASKRAGWLTKLVIDLFVKYYKVDMKEAQKPDTASYRTFNEFFVRPLRDEVRPIDTDPNVLAMPADGVISQLGKIEEDKILQAKGHNYSLEALLAGNYLMADLFRNGTFVTTYLSPRDYHRVHMPCNGILREMIYVPGDLFSVNHLTAQNVPNLFARNERVICLFDTEFGPMAQILVGATIVGSIETVWAGTITPPREGIIKRWTWPAGENDGSVALLKGQEMGRFKLGSTVINLFAPGKVNLVEQLESLSVTKIGQPLAVSTETFVTPDAEPAPLPAEEIEAEHDASPLVDDKKDQV"}, "B2": {"name": "psd V86W (protein)", "chain": "MLNSFKLSLQYILPKLWLTRLAGWGASKRAGWLTKLVIDLFVKYYKVDMKEAQKPDTASYRTFNEFFVRPLRDEVRPIDTDPNVLWMPADGVISQLGKIEEDKILQAKGHNYSLEALLAGNYLMADLFRNGTFVTTYLSPRDYHRVHMPCNGILREMIYVPGDLFSVNHLTAQNVPNLFARNERVICLFDTEFGPMAQILVGATIVGSIETVWAGTITPPREGIIKRWTWPAGENDGSVALLKGQEMGRFKLGSTVINLFAPGKVNLVEQLESLSVTKIGQPLAVSTETFVTPDAEPAPLPAEEIEAEHDASPLVDDKKDQV"}, "B3": {"name": "psd V86Q (protein)", "chain": "MLNSFKLSLQYILPKLWLTRLAGWGASKRAGWLTKLVIDLFVKYYKVDMKEAQKPDTASYRTFNEFFVRPLRDEVRPIDTDPNVLQMPADGVISQLGKIEEDKILQAKGHNYSLEALLAGNYLMADLFRNGTFVTTYLSPRDYHRVHMPCNGILREMIYVPGDLFSVNHLTAQNVPNLFARNERVICLFDTEFGPMAQILVGATIVGSIETVWAGTITPPREGIIKRWTWPAGENDGSVALLKGQEMGRFKLGSTVINLFAPGKVNLVEQLESLSVTKIGQPLAVSTETFVTPDAEPAPLPAEEIEAEHDASPLVDDKKDQV"}, "B4": {"name": "psd V86D (protein)", "chain": "MLNSFKLSLQYILPKLWLTRLAGWGASKRAGWLTKLVIDLFVKYYKVDMKEAQKPDTASYRTFNEFFVRPLRDEVRPIDTDPNVLDMPADGVISQLGKIEEDKILQAKGHNYSLEALLAGNYLMADLFRNGTFVTTYLSPRDYHRVHMPCNGILREMIYVPGDLFSVNHLTAQNVPNLFARNERVICLFDTEFGPMAQILVGATIVGSIETVWAGTITPPREGIIKRWTWPAGENDGSVALLKGQEMGRFKLGSTVINLFAPGKVNLVEQLESLSVTKIGQPLAVSTETFVTPDAEPAPLPAEEIEAEHDASPLVDDKKDQV"}, "B5": {"name": "psd V86P (protein)", "chain": "MLNSFKLSLQYILPKLWLTRLAGWGASKRAGWLTKLVIDLFVKYYKVDMKEAQKPDTASYRTFNEFFVRPLRDEVRPIDTDPNVLPMPADGVISQLGKIEEDKILQAKGHNYSLEALLAGNYLMADLFRNGTFVTTYLSPRDYHRVHMPCNGILREMIYVPGDLFSVNHLTAQNVPNLFARNERVICLFDTEFGPMAQILVGATIVGSIETVWAGTITPPREGIIKRWTWPAGENDGSVALLKGQEMGRFKLGSTVINLFAPGKVNLVEQLESLSVTKIGQPLAVSTETFVTPDAEPAPLPAEEIEAEHDASPLVDDKKDQV"}, "B6": {"name": "psd L96A (protein)", "chain": "MLNSFKLSLQYILPKLWLTRLAGWGASKRAGWLTKLVIDLFVKYYKVDMKEAQKPDTASYRTFNEFFVRPLRDEVRPIDTDPNVLVMPADGVISQAGKIEEDKILQAKGHNYSLEALLAGNYLMADLFRNGTFVTTYLSPRDYHRVHMPCNGILREMIYVPGDLFSVNHLTAQNVPNLFARNERVICLFDTEFGPMAQILVGATIVGSIETVWAGTITPPREGIIKRWTWPAGENDGSVALLKGQEMGRFKLGSTVINLFAPGKVNLVEQLESLSVTKIGQPLAVSTETFVTPDAEPAPLPAEEIEAEHDASPLVDDKKDQV"}, "B7": {"name": "psd L96W (protein)", "chain": "MLNSFKLSLQYILPKLWLTRLAGWGASKRAGWLTKLVIDLFVKYYKVDMKEAQKPDTASYRTFNEFFVRPLRDEVRPIDTDPNVLVMPADGVISQWGKIEEDKILQAKGHNYSLEALLAGNYLMADLFRNGTFVTTYLSPRDYHRVHMPCNGILREMIYVPGDLFSVNHLTAQNVPNLFARNERVICLFDTEFGPMAQILVGATIVGSIETVWAGTITPPREGIIKRWTWPAGENDGSVALLKGQEMGRFKLGSTVINLFAPGKVNLVEQLESLSVTKIGQPLAVSTETFVTPDAEPAPLPAEEIEAEHDASPLVDDKKDQV"}}, "note": "± gives the standard deviation of the averaged measurements. Laboratory Escherichia coli strains with one amino-acid change in an essential protein, pooled on minimal glucose agar with carbenicillin or gentamicin at twice the control MIC (plus kanamycin and chloramphenicol for the plasmids), 48 h. Fold change of barcode share against drug-free plates; higher = less susceptible. Active = above 20 in both replicates (the paper's putatively resistant). '<' = one read or none on drug, '>' = one read or none on a drug-free plate. Shares are relative, so most strains fall below 1 when a few take over. Listed are strains with at least 15 reads on both drug-free plates, and hits; most hits rest on fewer reference reads. Replicate rank correlation about 0.5. Edits are read from barcodes.", "data": [{"target": "Escherichia coli (laboratory strain)", "assay": "barcode share on antibiotic plates over drug-free plates; higher = less susceptible", "conditions": "antibiotic: carbenicillin; 2× MIC (3.1 µg/mL)", "method": "(§1)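 A pool of E. coli strains, each edited to carry one amino-acid change in an essential protein, was grown for 48 h on minimal glucose agar with or without antibiotic; strain barcodes were sequenced; mean of two replicates.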", "values": [{"protein": "B1", "fold change of barcode share": "0.222 ± 0.1"}, {"protein": "B2", "fold change of barcode share": "0.264 ± 0.087"}, {"protein": "B3", "fold change of barcode share": "0.354 ± 0.12"}, {"protein": "B4", "fold change of barcode share": "0.202 ± 0.081"}, {"protein": "B5", "fold change of barcode share": "0.351 ± 0.11"}, {"protein": "B6", "fold change of barcode share": "0.266 ± 0.018"}, {"protein": "B7", "fold change of barcode share": "0.836 ± 0.085"}]}, {"target": "Escherichia coli (laboratory strain)", "assay": "barcode share on antibiotic plates over drug-free plates; higher = less susceptible", "conditions": "antibiotic: gentamicin; 2× MIC (MIC 0.45 µg/mL)", "method": "as §1", "values": [{"protein": "B1", "fold change of barcode share": "< 0.00838"}, {"protein": "B2", "fold change of barcode share": "0.00554 ± 0.0024"}, {"protein": "B3", "fold change of barcode share": "< 0.00301"}, {"protein": "B4", "fold change of barcode share": "< 0.00447"}, {"protein": "B5", "fold change of barcode share": "< 0.0105"}, {"protein": "B6", "fold change of barcode share": "< 0.00557"}, {"protein": "B7", "fold change of barcode share": "0.0156 ± 0.013"}]}]}
